Hit rate of the full screen: of about 110,000 compounds, about 230 (0.21%) showed an effect of 50% or more. This is one part of the list.
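Note: 30 min substrate incubation versus DMSO and 10 µM JCP410 controls.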

Sequence of DPAP1 (Q8IIJ9 whole entry, looked up): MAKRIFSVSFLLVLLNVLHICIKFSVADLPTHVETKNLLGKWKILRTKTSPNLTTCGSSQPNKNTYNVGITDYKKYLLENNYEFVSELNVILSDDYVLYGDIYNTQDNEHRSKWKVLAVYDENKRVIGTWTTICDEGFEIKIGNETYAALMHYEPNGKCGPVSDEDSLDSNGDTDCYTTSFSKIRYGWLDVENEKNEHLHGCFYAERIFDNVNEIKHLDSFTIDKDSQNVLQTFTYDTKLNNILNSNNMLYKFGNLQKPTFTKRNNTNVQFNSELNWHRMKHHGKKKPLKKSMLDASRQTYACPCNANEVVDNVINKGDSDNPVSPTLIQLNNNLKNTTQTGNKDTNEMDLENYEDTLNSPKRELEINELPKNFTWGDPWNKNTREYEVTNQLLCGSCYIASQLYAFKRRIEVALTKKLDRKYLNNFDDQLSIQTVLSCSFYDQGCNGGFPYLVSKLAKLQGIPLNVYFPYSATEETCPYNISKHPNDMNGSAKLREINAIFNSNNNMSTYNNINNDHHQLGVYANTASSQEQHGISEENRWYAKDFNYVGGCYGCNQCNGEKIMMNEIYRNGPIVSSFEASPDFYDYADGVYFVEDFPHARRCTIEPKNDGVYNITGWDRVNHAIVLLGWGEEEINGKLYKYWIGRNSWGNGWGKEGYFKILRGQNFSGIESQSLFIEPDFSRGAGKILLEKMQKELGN

This test concerns the target DPAP1 (Plasmodium falciparum, UniProt Q8IIJ9). The experiment in a line: primary screen, percent inhibition; read by cleavage of a fluorogenic dipeptide substrate; higher = more effect of the substance. Also on record: species or system P. falciparum D10 trophozoite lysates; single well.
As for `CC(C)CC(C(=O)NCC#N)c1cccc(-c2cncc3ccccc23)c1` (stereo not shown), the “% Inhibition @ 10 uM” value was determined as 0.173%. As for `Cn1c(=O)c2c(nc(OCC3COC(C)(C)O3)n2Cc2ccccc2Cl)n(C)c1=O` (stereo not shown), the figure is 1.72%. As for `CCCCc1ccc(C(=O)Nc2cc3ccccc3oc2=O)cc1`, the “% Inhibition @ 10 uM” value is given as 4.15%. `CCOc1ccc(C(=O)Nc2nn3c(CC)nnc3s2)cc1`: the “% Inhibition @ 10 uM” value is listed as 2.25%. For the compound `O=C(Nc1nc[nH]n1)c1ccccc1O`, the “% Inhibition @ 10 uM” value was -7.25%. For `COc1ccc(C(=O)Nc2cccc(C(=O)Nc3cccc(Cl)c3)c2)cc1` the value was -4.43%; for `CC(C)(C)c1ccc(Oc2nc3ccccn3c(=O)c2/C=C(\C#N)S(=O)(=O)c2ccccc2)cc1`, 0.189%. In the case of `COc1ccc(C2NC(C(=O)O)Cc3c2[nH]c2ccccc32)c(OC)c1` (stereo not shown), the “% Inhibition @ 10 uM” value was -0.0372%.

In the case of `COc1cc(C2Nc3ccccc3C(=O)N2Cc2ccco2)ccc1O` (stereo not shown), the “% Inhibition @ 10 uM” value is recorded as -5.71%. Turning to `C=C(C)CC(C(=O)NCC#N)c1cncc(-c2ccccc2)c1` (stereo not shown), the “% Inhibition @ 10 uM” value is -4.72%.

As for `COc1ccccc1C(=O)Nc1ccc2oc(-c3ccc(N(C)C)cc3)nc2c1`, the “% Inhibition @ 10 uM” value is reported as 0.35%.

For the compound `Cc1ccc2oc(-c3ccc(Br)c(N)c3)nc2c1`, the “% Inhibition @ 10 uM” value is on record as -3.45%. For `COc1ccc(C2c3cc(OC)c(OC)cc3CCN2C)cc1OC` (stereo not shown) the value was -6.29%. As to `CCCN1CCN(CCCNC(=O)c2ccc3c(Cl)c4c(nc3c2)CCCC4)CC1`, the “% Inhibition @ 10 uM” value worked out at 7.03%. As for `O=C(Cn1c(=O)c2cccn2c2cccnc21)N1CCN(C2CCCCC2)CC1`, the “% Inhibition @ 10 uM” value amounted to 6.66%. With `CCSc1nnc(NC(=O)c2c(-c3ccccc3)noc2C)s1`, the “% Inhibition @ 10 uM” value is listed as -4.77%. For `O=C1CSC(c2ccccc2)N1CC(O)c1ccccc1` (stereo not shown) the value was -9.91%. As for `Cn1cnc2c(=O)oc3ccc(S(=O)(=O)NCC4CCCO4)cc3c21` (stereo not shown), the “% Inhibition @ 10 uM” value is listed as -1.83%. For `CS(=O)(=O)N(CC(=O)NCc1ccc(Cl)cc1)c1cccc(Cl)c1Cl` the value was -17.1%; for `CCN1CCN(CCc2ccccc2)CC1`, 1.08%. For `COc1ccccc1NCN1C(=O)CCC1=O` the value was 1.7%.

For the compound `COc1ccc(CCNC(=O)C2CCCN(S(=O)(=O)c3cccc4nonc34)C2)cc1OC` (stereo not shown), the “% Inhibition @ 10 uM” value is listed as -2.56%.

As to `O=C(Nc1cccnc1Cl)c1cc2c(s1)-c1ccccc1S(=O)(=O)C2`, the “% Inhibition @ 10 uM” value is reported as -0.72%. For `Cc1ccc2nc(NC3CCCCC3)c3nnnn3c2c1` the value was -4.59%; for `COc1ccc(CCNC(=O)CSc2ccc(-c3cccs3)nn2)cc1OC`, 0.581%.

`O=C(NCc1ccccc1)c1ccc(N2C(=O)CSC23C(=O)Nc2ccccc23)cc1` (stereo not shown): the “% Inhibition @ 10 uM” value is on record as -1.19%.

Consider `CCC(Cc1ccccc1)NC(=O)C1CCN(C(=O)c2cc3sccc3n2C)CC1` (stereo not shown), for which the “% Inhibition @ 10 uM” value was -1.58%. With `CCOc1ccc(C(=O)Nc2cccc(F)c2)cc1`, the “% Inhibition @ 10 uM” value is recorded as -9.68%.

Take `CCn1c(C(=O)NCCCN2CCc3ccccc3C2)cc2sccc21`: the “% Inhibition @ 10 uM” value is reported as -6.68%. For `CCn1c(=O)[nH]c2cc(C(=O)Nc3ccc(OC)cc3)ccc2c1=O` the value was -5.32%; for `O=C(c1ccccc1)N1CCc2[nH]ncc2C1`, -3.1%. With `CN1CCN(C(=O)C2c3ccccc3C=Cc3ccccc32)CC1`, the “% Inhibition @ 10 uM” value is listed as -0.312%. For the compound `COc1ccc(N2CCN(Cc3cccc(C(F)(F)F)c3)CC2)cc1`, the “% Inhibition @ 10 uM” value was -2.56%. For `O=C(NCc1ccccc1Cl)NC12CC3CC(CC(C3)C1)C2` the value was 0.35%; for `CC(C)(C)OC(=O)NC(Cc1c[nH]c2ccccc12)C(=O)NCC#N` (stereo not shown), 1.7%. With `Cc1onc(-c2ccccc2)c1C(=O)NCC1CCN(C(=O)c2c(-c3ccccc3)noc2C)CC1`, the “% Inhibition @ 10 uM” value was found to be 3.67%. For `CCOC(=O)c1sc(N2C(=O)c3oc4ccc(C)cc4c(=O)c3C2c2cccc(OC)c2)nc1C` (stereo not shown), the “% Inhibition @ 10 uM” value turned out to be 5.3%.

With `CCCN1CCN(C(=O)c2oc3ccccc3c2NC(=O)COc2ccc(OC)cc2)CC1`, the “% Inhibition @ 10 uM” value was -3.09%. Regarding `Cn1nc(C(=O)Nc2ccc(Cl)cn2)c2c1-c1ccccc1OC2`, the “% Inhibition @ 10 uM” value was determined as 0.00665%. Take `O=C(NCc1cccs1)c1ccc(-n2cccc2)cc1`: the “% Inhibition @ 10 uM” value is given as -3.93%.

In the case of `CC(C)C[C@H](Nc1ccccc1[N+](=O)[O-])C(=O)NCC#N`, the “% Inhibition @ 10 uM” value is reported as -8.49%. In the case of `O=c1c(Cc2ccccc2)c(O)cc(-c2cccnc2)n1-c1ccc(Cl)cc1`, the “% Inhibition @ 10 uM” value is given as 0.726%. `CCc1ccc(-c2oc(C)c(C)[n+]2[O-])cc1`: the “% Inhibition @ 10 uM” value came to 2.94%. Turning to `CC1CCN(c2c(NCc3ccc(C(=O)NCc4cccnc4)cc3)c(=O)c2=O)CC1`, the “% Inhibition @ 10 uM” value came to 2.76%. With `Cc1ccc2c(c1)C(OC1CCN(C)CC1)c1ccccc1CS2` (stereo not shown), the “% Inhibition @ 10 uM” value is -16.5%. Take `NC(=S)N/N=C/c1cccc(C(=O)O)c1O`: the “% Inhibition @ 10 uM” value came to 2.8%. Consider `COc1ccccc1-c1c(C)nn2c(N(C)Cc3ccccc3)cc(C)nc12`, for which the “% Inhibition @ 10 uM” value is reported as -1.46%.

Consider `COc1ccc(OC)c(/C=C/C(=O)NCCN2CCC(N(C)C3CCCCC3C)CC2)c1` (stereo not shown), for which the “% Inhibition @ 10 uM” value is given as -1.05%. As to `COCCn1c(/C=C/c2ccccc2)nc2ccccc21`, the “% Inhibition @ 10 uM” value is reported as -2.5%.

With `CN(C)C(=O)N1CCC(C(=O)NCCC2=CCCCC2)CC1`, the “% Inhibition @ 10 uM” value is on record as -3.12%. For `Cc1cccc(CN2CCN(CC(=O)N3CCc4ccccc4C3)C2=O)c1`, the “% Inhibition @ 10 uM” value turned out to be 0.128%. For `CC(C)(C)NC(=O)CCn1nc(-c2ccc(Cl)cc2)c2ccccc2c1=O`, the “% Inhibition @ 10 uM” value was found to be 2.25%. As for `CCC(C)N1C(=O)S/C(=C/c2ccc(OC)c(OC)c2)C1=O` (stereo not shown), the figure is 1.08%; as for `Cc1nnc2c3c4c(sc3nc(C)n12)CCCC4`, 5.75%. As for `COc1cc2oc(=O)c(CC(=O)N3CCOCC3)c(C)c2cc1OC`, the “% Inhibition @ 10 uM” value is given as 4.13%. For `CCOc1ccc(C(=O)N2CCCN(C(=O)c3ccc(OCC)cc3)CC2)cc1` the value was -2.8%; for `COC(=O)c1c(N)sc(Cc2ccccc2)c1C`, 11%. In the case of `Brc1ccc(-c2noc(COc3ccccc3)n2)cc1`, the “% Inhibition @ 10 uM” value was 4.98%. In the case of `Cc1ccc(N(CC(=O)NCC2CCCO2)S(=O)(=O)c2ccccc2)cc1C` (stereo not shown), the “% Inhibition @ 10 uM” value is listed as -2.83%. `Cc1ccc(-c2nc3ncccn3c2NC2CCCC2)o1`: the “% Inhibition @ 10 uM” value is 1.75%.

For `COC(=O)c1c(C)[nH]c(-c2ccccc2)c1/C=C/C(O)=C1\C(=O)Oc2ccccc2C1=O`, the “% Inhibition @ 10 uM” value is on record as -3.44%. With `CCOc1cc(C2C=C(c3cccc(C)c3)Nc3nnnn32)ccc1OC(F)F` (stereo not shown), the “% Inhibition @ 10 uM” value is reported as 1.73%. Turning to `CC(C)C[C@H](NC1=NC(=O)c2ccccc21)C(=O)NCC#N`, the “% Inhibition @ 10 uM” value is on record as -10.7%. `CN(C)CCCNC(=O)c1nc(-c2ccc(C(F)(F)F)cc2)no1`: the “% Inhibition @ 10 uM” value is reported as 0.895%.

The record behind these values is publication PMC6919601, “Identification of Plasmodium dipeptidyl aminopeptidase allosteric inhibitors by high throughput screening” (PLoS ONE, 2019).
